# Measurements taken from the supplement of paper PMC8728848.
# The sample as a whole holds a higher share of the strongest signals than the screen did.
# B1: CGL2 (Coprinopsis cinerea), Q9P4R8 (protein)
# chain: MLYHLFVNNQVKLQNDFKPESVAAIRSSAFNSKGGTTVFNFLSAGENILLHISIRPGENVIVFNSRLKNGAWGPEERIPYAEKFRPPNPSITVIDHGDRFQIRFDYGTSIYYNKRIKENAAAIAYNAENSLFSSPVTVDVHGLLPPLPPA
# Assays:
# Assay in all cases: glycan array binding signal (z-score within array); higher = stronger binding
# Conditions in all cases: glycan notation: IUPAC condensed, linker removed
# Fuc(a1-2)Gal = target: Fuc(a1-2)Gal
# Procedure, shortened: (§1)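 Glycan array binding is given as a within-array Z-score, which can be read as non-binding when negative. The arrays, 3228 of them, came from the Consortium for Functional Glycomics database and were retained only where the protein sequence was available. Z-scores were averaged across arrays of the same protein sequence at different concentrations or buffers and across linkers.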
# [1] = target: Fuc(a1-2)Gal(b1-4)[Fuc(a1-3)]GlcNAc
# Procedure, shortened: as §1
# [2] = target: Fuc(a1-2)[Gal(a1-3)]Gal(b1-3)GlcNAc
# Procedure, shortened: as §1
# [3] = target: Fuc(a1-2)[Gal(a1-3)]Gal(b1-3)GlcNAc(b1-2)Man(a1-3)[Fuc(a1-2)[Gal(a1-3)]Gal(b1-3)GlcNAc(b1-2)Man(a1-6)]Man(b1-4)GlcNAc(b1-4)GlcNAc
# Procedure, shortened: as §1
# [4] = target: Fuc(a1-2)[Gal(a1-3)]Gal(b1-4)Glc
# Procedure, shortened: as §1
# [5] = target: Fuc(a1-2)[Gal(a1-3)]Gal(b1-4)GlcNAc
# Procedure, shortened: as §1
# [6] = target: Fuc(a1-2)[Gal(a1-3)]Gal(b1-4)GlcNAc(b1-2)Man(a1-3)[Fuc(a1-2)[Gal(a1-3)]Gal(b1-4)GlcNAc(b1-2)Man(a1-6)]Man(b1-4)GlcNAc(b1-4)GlcNAc
# Procedure, shortened: as §1
# [7] = target: Fuc(a1-2)[GalNAc(a1-3)]Gal(b1-3)GlcNAc(b1-2)Man(a1-3)[Fuc(a1-2)[GalNAc(a1-3)]Gal(b1-3)GlcNAc(b1-2)Man(a1-6)]Man(b1-4)GlcNAc(b1-4)GlcNAc
# Procedure, shortened: as §1
# [8] = target: Fuc(a1-2)[GalNAc(a1-3)]Gal(b1-4)GlcNAc(b1-2)Man(a1-3)[Fuc(a1-2)[GalNAc(a1-3)]Gal(b1-4)GlcNAc(b1-2)Man(a1-6)]Man(b1-4)GlcNAc(b1-4)GlcNAc
# Procedure, shortened: as §1
# [9] = target: Fuc(a1-2)[GalNAc(a1-3)]Gal(b1-4)GlcNAc(b1-3)Gal(b1-4)GlcNAc
# Procedure, shortened: as §1
# [10] = target: Fuc(a1-3)[Gal(b1-4)]GlcNAc(b1-2)Man(a1-3)[Fuc(a1-3)[Gal(b1-4)]GlcNAc(b1-2)Man(a1-6)]Man(b1-4)GlcNAc(b1-4)[Fuc(a1-6)]GlcNAc
# Procedure, shortened: as §1
# [11] = target: Fuc(a1-3)[Gal(b1-4)]GlcNAc(b1-3)Gal(b1-3)[Fuc(a1-4)]GlcNAc
# Procedure, shortened: as §1
# [12] = target: Fuc(a1-3)[Gal(b1-4)]GlcNAc(b1-3)GalNAc
# Procedure, shortened: as §1
# Gal(a1-3)Gal = target: Gal(a1-3)Gal
# Procedure, shortened: as §1
# [13] = target: Gal(a1-3)Gal(b1-4)GlcNAc(b1-6)GalNAc
# Procedure, shortened: as §1
# Gal(b1-3)Gal(b1-4)GlcNAc = target: Gal(b1-3)Gal(b1-4)GlcNAc
# Procedure, shortened: as §1
# [14] = target: Gal(b1-3)GlcNAc(b1-2)Man(a1-3)[GlcNAc(b1-4)][Gal(b1-3)GlcNAc(b1-2)Man(a1-6)]Man(b1-4)GlcNAc(b1-4)GlcNAc
# Procedure, shortened: as §1
# [15] = target: Gal(b1-3)GlcNAc(b1-6)GalNAc
# Procedure, shortened: as §1
# [16] = target: Gal(b1-3)[Fuc(a1-4)]GlcNAc
# Procedure, shortened: as §1
# [17] = target: Gal(b1-3)[Neu5Ac(a2-6)]GlcNAc(b1-6)Gal(b1-4)Glc
# Procedure, shortened: as §1
# [18] = target: Gal(b1-4)GlcNAc(b1-2)[Gal(b1-4)GlcNAc(b1-4)]Man(a1-3)[GlcNAc(b1-4)][Gal(b1-4)GlcNAc(b1-2)[Gal(b1-4)GlcNAc(b1-6)]Man(a1-6)]Man(b1-4)GlcNAc(b1-4)[Fuc(a1-6)]GlcNAc
# Procedure, shortened: as §1
# Gal3S(b1-3)GlcNAc = target: Gal3S(b1-3)GlcNAc
# Procedure, shortened: as §1
# Gal3S(b1-4)Glc6S = target: Gal3S(b1-4)Glc6S
# Procedure, shortened: as §1
# Gal3S(b1-4)GlcNAc6S = target: Gal3S(b1-4)GlcNAc6S
# Procedure, shortened: as §1
# [19] = target: GlcNAc(a1-3)Gal(b1-4)GlcNAc
# Procedure, shortened: as §1
# [20] = target: GlcNAc(a1-4)Gal(b1-4)GlcNAc(b1-3)Gal(b1-4)GlcNAc(b1-3)Gal(b1-4)GlcNAc
# Procedure, shortened: as §1
# [21] = target: GlcNAc(b1-2)[GlcNAc(b1-4)]Man(a1-3)[GlcNAc(b1-4)][GlcNAc(b1-2)[GlcNAc(b1-6)]Man(a1-6)]Man(b1-4)GlcNAc(b1-4)GlcNAc
# Procedure, shortened: as §1
# [22] = target: GlcNAc(b1-3)[GlcNAc(b1-6)]Gal(b1-4)GlcNAc
# Procedure, shortened: as §1
# [23] = target: Man(a1-2)Man(a1-6)[Man(a1-3)]Man(a1-6)[Man(a1-2)Man(a1-2)Man(a1-3)]Man
# Procedure, shortened: as §1
# Man(a1-6)Man = target: Man(a1-6)Man
# Procedure, shortened: as §1
# [24] = target: Neu5Ac(a2-3)Gal(b1-3)GalNAc
# Procedure, shortened: as §1
# [25] = target: Neu5Ac(a2-3)Gal(b1-3)[Fuc(a1-4)]GlcNAc
# Procedure, shortened: as §1
# [26] = target: Neu5Ac(a2-3)Gal(b1-3)[Neu5Ac(a2-6)]GalNAc
# Procedure, shortened: as §1
# Neu5Ac(a2-3)Gal(b1-4)Glc = target: Neu5Ac(a2-3)Gal(b1-4)Glc
# Procedure, shortened: as §1
# [27] = target: Neu5Ac(a2-3)Gal(b1-4)GlcNAc6S
# Procedure, shortened: as §1
# [28] = target: Neu5Ac(a2-3)Gal(b1-4)[Fuc(a1-3)]GlcNAc(b1-3)Gal(b1-4)[Fuc(a1-3)]GlcNAc(b1-3)Gal(b1-4)[Fuc(a1-3)]GlcNAc
# Procedure, shortened: as §1
# [29] = target: Neu5Ac(a2-6)Gal(b1-4)GlcNAc(b1-2)Man(a1-6)[Man(a1-3)]Man(b1-4)GlcNAc(b1-4)GlcNAc
# Procedure, shortened: as §1
# Neu5Ac(a2-6)GalNAc = target: Neu5Ac(a2-6)GalNAc
# Procedure, shortened: as §1
# [30] = target: Neu5Ac(a2-8)Neu5Ac(a2-8)Neu5Ac(a2-8)Neu5Ac(a2-3)[GalNAc(b1-4)]Gal(b1-4)Glc
# Procedure, shortened: as §1
# [31] = target: Neu5Ac(b2-6)Gal(b1-4)GlcNAc
# Procedure, shortened: as §1
# Neu5Ac(b2-6)GalNAc = target: Neu5Ac(b2-6)GalNAc
# Procedure, shortened: as §1
binder,measurement,setting,value
B1,glycan array binding signal (z-score),Fuc(a1-2)Gal,-0.528
same,glycan array binding signal (z-score),[1],-0.469
same,glycan array binding signal (z-score),[2],4.22
same,glycan array binding signal (z-score),[3],3.22
same,glycan array binding signal (z-score),[4],2.41
same,glycan array binding signal (z-score),[5],3
same,glycan array binding signal (z-score),[6],5.26
same,glycan array binding signal (z-score),[7],0.795
same,glycan array binding signal (z-score),[8],5.56
same,glycan array binding signal (z-score),[9],2.74
same,glycan array binding signal (z-score),[10],-0.333
same,glycan array binding signal (z-score),[11],-0.252
same,glycan array binding signal (z-score),[12],-0.433
same,glycan array binding signal (z-score),Gal(a1-3)Gal,-0.412
same,glycan array binding signal (z-score),[13],0.257
same,glycan array binding signal (z-score),Gal(b1-3)Gal(b1-4)GlcNAc,0.266
same,glycan array binding signal (z-score),[14],0.245
same,glycan array binding signal (z-score),[15],-0.207
same,glycan array binding signal (z-score),[16],-0.509
same,glycan array binding signal (z-score),[17],0.096
same,glycan array binding signal (z-score),[18],0.518
same,glycan array binding signal (z-score),Gal3S(b1-3)GlcNAc,3.11
same,glycan array binding signal (z-score),Gal3S(b1-4)Glc6S,3.25
same,glycan array binding signal (z-score),Gal3S(b1-4)GlcNAc6S,4.79
same,glycan array binding signal (z-score),[19],-0.136
same,glycan array binding signal (z-score),[20],0.313
same,glycan array binding signal (z-score),[21],-0.483
same,glycan array binding signal (z-score),[22],-0.438
same,glycan array binding signal (z-score),[23],-0.393
same,glycan array binding signal (z-score),Man(a1-6)Man,-0.349
same,glycan array binding signal (z-score),[24],0.271
same,glycan array binding signal (z-score),[25],-0.453
same,glycan array binding signal (z-score),[26],-0.007
same,glycan array binding signal (z-score),Neu5Ac(a2-3)Gal(b1-4)Glc,0.303
same,glycan array binding signal (z-score),[27],0.999
same,glycan array binding signal (z-score),[28],-0.451
same,glycan array binding signal (z-score),[29],-0.397
same,glycan array binding signal (z-score),Neu5Ac(a2-6)GalNAc,-0.495
same,glycan array binding signal (z-score),[30],-0.476
same,glycan array binding signal (z-score),[31],-0.441
same,glycan array binding signal (z-score),Neu5Ac(b2-6)GalNAc,-0.369
